Structures are written as SMILES. Screen size: about 48,000 compounds; about 450 (0.94%) were called active. Inconclusive results (about 19%) are left out. The call rests on the fitted dose curve; in most records, active means well fitted inhibition curve with a large enough effect; inconclusive means small, poorly fitted or top-dose-only effect; inactive means no such curve, though single readings can be large or run the other way. This is one part of the list.

The experiment is described as follows: Primary qHTS for Identification of Small Molecule Inhibitors of Huntingtin Promoter Activity. Further: nearly all actives have a fitted effect of over 50% in size. The settings on record: HEK293 HTT promoter firefly luciferase reporter (activity 0% = vehicle and -100% = no light), 24 h; series mostly up to 57.5 µM; activity change, negative = inhibition: at the top concentration. In a few lines: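 HEK293 luciferase promoter-reporter cells (2,500/well) plated 24 h, then compounds added at up to 57.5 uM final for 24 h at 37 °C. Firefly luminescence by Dual-Glo, normalized to vehicle (0%) and zero RLU (-100%).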
With `CCc1ccc(NC(=O)c2ccc3[nH]c(C)c(C)c3c2)cc1`, the “activity change, negative = inhibition” value was inactive: 35.1%.
As for `CCN(Cc1ccccc1)C(=O)CN(c1ccc(OC)cc1)S(=O)(=O)c1c(C)nn(C)c1C`, the figure is inactive: -13.7%; as for `CCOc1ccc(NC(=O)Cn2c(=O)n(-c3cccc(OC)c3)c(=O)c3c4c(sc32)CCCC4)cc1`, inactive: 0%; as for `CCCCN(CCCC)CCNC(=O)c1cn(CC)c2ccc(S(=O)(=O)N(C)C3CCCCC3)cc2c1=O`, inactive: -1.71%.
In the case of `COC(=O)N[C@H](C(=O)N1CCC[C@@H]1c1ncc(-c2ccc(-c3ccc(-c4cnc([C@@H]5CCCN5C(=O)[C@@H](NC(=O)OC)C(C)C)[nH]4)cc3)cc2)[nH]1)C(C)C` it was inactive: -14.5%.
For the compound `CCOC(=O)C1CCN(C(=O)Cn2c(=O)oc3cc(S(=O)(=O)N4CCC(C)CC4)ccc32)CC1`, the “activity change, negative = inhibition” value was inactive: -15%.
In the case of `Cc1ccccc1NC(=O)CSc1nc2c(c(=O)n(C)c(=O)n2C)n1Cc1ccccc1F` it was inactive: 9.57%; in that of `COCCNC(=O)Cn1c(=O)n(CCCCCC(=O)NCc2ccc3c(c2)OCO3)c(=O)c2sccc21`, inactive: -8.14%; in that of `COc1ccc(-c2nc(CSc3nncn4c3cc3sccc34)c(C)o2)cc1OC`, inactive: 5.24%.
In the case of `O=C(CN1C(=O)CCc2cc(S(=O)(=O)N3CCOCC3)ccc21)NCc1ccccc1` it was inactive: -24.4%; in that of `CCNc1nc(OC)nc(Oc2ccc(=O)[nH]n2)n1`, inactive: -2.29%.
For `CN1[C@@H]2CC[C@H]1CC(OC(=O)C(O)c1ccccc1)C2` (stereo not given in full), the “activity change, negative = inhibition” value is inactive: 4.43%.
In the case of `CCCNC(=O)c1ccc2nc(CCc3ccccc3)oc2c1` it was inactive: 9.95%; in that of `Cc1cc(C)cc(S(=O)(=O)c2cn(C)c3cc(N4CCCC4)c(F)cc3c2=O)c1`, inactive: -11.4%; in that of `CCc1ccc(NC(=O)CSC2=Nc3ccccc3C3=NC(CCC(=O)NCc4ccco4)C(=O)N23)cc1` (stereo not given), inactive: -17.9%.
In the case of `COc1ccc(C(=O)n2nc(-c3ccco3)nc2NCc2cccs2)cc1OC` it was inactive: 19.6%; in that of `CCc1ccccc1NC(=O)N(C)CCc1c(C)nn(C)c1C`, inactive: -3.2%; in that of `Cc1ccc(-c2nc3sc(CCNC(=O)c4ccc(C)c(C)c4)c(C)n3n2)cc1`, inactive: 9.51%.
On to `CC(=O)c1cccc(NC(=O)c2cc(-c3ccc(Cl)s3)nc3ccccc23)c1`, for which the “activity change, negative = inhibition” value was inactive: -14.5%.
As for `COc1ccc(NC(=O)CC2C(=O)N(c3cccc(C)c3)C(=O)N2C2CCCCC2)cc1` (stereo not given), the figure is inactive: -28.6%; as for `CCC(C)(Oc1ccc(C2(c3ccc(OC(C)(CC)C(=O)O)cc3)CCCCC2)cc1)C(=O)O` (stereo not given), inactive: 12.7%.
As for `CC(C)c1ccc(S(=O)(=O)c2nnn3c2nc(N2CCCCC2)c2sccc23)cc1`, the figure is inactive: 8.42%.
In the case of `Cc1ccc(C)c(Cn2c(-c3cccs3)nc3ccccc32)c1` it was inactive: -27.8%.
As for `Cc1ccc(C)c(CN2C(=O)N(c3cc(Cl)ccc3C)S(=O)(=O)c3ccccc32)c1`, the “activity change, negative = inhibition” value is inactive: -16%.
As for `CC(C)Cc1ccc(S(=O)(=O)Nc2cc3c(cc2N2CCOCC2)n(C)c(=O)c(=O)n3C)cc1`, the figure is inactive: -1.6%.

For the origin of these results see PubChem BioAssay AID1508623 (National Center for Advancing Translational Sciences (NCATS), 2021).
